Test results published in patent US5942491A (priority 1996, dated 1999).
“Also recorded” adds a separate entry of the source. Read-outs that look alike come from different tables or passages of the source. Not every detail of the peptide structures is certain; ends, links or a residue may be inferred. Some entries repeat one wording, which the source may state once for all of them. Where no end group is shown, it is not given here.

Experiments:
adjuvant arthritis [1] = tested on: adjuvant arthritis; set-up: species or system Lewis rats; settings: rat, in vivo
adjuvant arthritis [2] = tested on: adjuvant arthritis; set-up: species or system Lewis rats; settings: rat, in vivo; remark: listed apart in the source
adjuvant arthritis [3] = experiment: Adjuvant-induced model of arthritis, summary statements on prevention and treatment; assay type: in vivo, Lewis rats; settings: summary statement

Sequence | Effect on the course of pre-existing arthritis (adjuvant arthritis [1]) | further results
FWRFLWGSSQ [SEQ ID NO:13, Phe-Trp-Arg-Phe-Leu-Trp-Gly-Ser-Ser-Gln] | somewhat effective | –
LPRLGGKEDR [SEQ ID NO:11, Leu-Pro-Arg-Leu-Gly-Gly-Lys-Glu-Asp-Arg] | no effect on the course of the arthritis | –
MSKTEWNASQ [SEQ ID NO:9, Met-Ser-Lys-Thr-Glu-Trp-Asn-Ala-Ser-Gln] | no effect on the course of the arthritis | –
MSKTEWNASQLPRLGGKEDR [SEQ ID NO:16] | By far the two most effective agents | Effect on the course of pre-existing arthritis (adjuvant arthritis [1]; listed as RBARTH-8): much more effective than either measles vaccine or pMBP; Protective effect against induction of adjuvant arthritis (adjuvant arthritis [2]): very significant protective effects against induction of adjuvant arthritis; also recorded: protective; Prevention and suppression/treatment of arthritis (summary in words) (adjuvant arthritis [3]): can be used effectively as both a vaccine and a treatment for adjuvant arthritis
MSKTEWNASQSRFGWFENKE [SEQ ID NO:14] | By far the two most effective agents | Effect on the course of pre-existing arthritis (adjuvant arthritis [1]; listed as RBARTH-6): much more effective than either measles vaccine or pMBP; Protective effect against induction of adjuvant arthritis (adjuvant arthritis [2]): minimal protective effects that were of limited clinical value
SRFGWFENKE [SEQ ID NO:10, Ser-Arg-Phe-Gly-Trp-Phe-Glu-Asn-Lys-Glu] | no effect on the course of the arthritis | –
TLQRFAWGSSN [SEQ ID NO:12, Thr-Leu-Gln-Arg-Phe-Ala-Trp-Gly-Ser-Ser-Asn] | somewhat effective | –
